# Assay results as given in article PMC12136788.
# The list shows a part of the results.
# T1: UNK ZnF1-3 (human, UniProt Q9C0B0 31-174)
# T1 sequence: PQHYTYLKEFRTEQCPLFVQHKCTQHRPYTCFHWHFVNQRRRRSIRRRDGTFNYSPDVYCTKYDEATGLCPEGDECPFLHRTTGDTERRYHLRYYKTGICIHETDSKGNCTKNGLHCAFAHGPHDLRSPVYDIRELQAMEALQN
# B1: chr17:57746147:57746148:+_ENSG00000141367_ENST00000269122|hu_hu|motif|central (ssRNA)
# RNA: GGGAGUUCUACAGUCCGACGAUCUUGCCCAGUCUUGCAAGCUGCCUGAAUAUAUUUAAAGUGCACAUCUGGGUCCUGGCGGAAGUUAACAAUGGAUCCCAGAAAAUAAAAGAGACCUUCAAAACUCUUGAAAGAUUCAAAAAGCAACAGAGGAUUGAGCAUCA
# B2: chr7:141450121:141450122:+_ENSG00000106028_ENST00000265304|hu_mus|hu_hu_hu_mus_True|8_28 (ssRNA)
# RNA: GGGAGUUCUACAGUCCGACGAUCUCAUCCGUUCUAUGCCUUUUCUUUUGUCUGGUCACUCAGAAAUAUAAUGUUAUCAGCUAUGAUUGUUGUUGCUUGCCGCCUCACAUUAUUUUUAUCCAUGUACUCACCAUAGUCCACUUUCAACAGAGGAUUGAGCAUCA
# B3: chr1:186326634:186326635:-_ENSG00000047410_ENST00000367478|hu_mus|motif|central (ssRNA)
# RNA: GGGAGUUCUACAGUCCGACGAUCAGCGAAUAGCAGACGCUGAUUCUGCUGCUGAAGCUCUUCGAUGUUCCUGUAAGAUACGGGGUGCUGCGAAAUCACUUCAGACGAACUACUGAUGUCAGCAGAGCUGACCUCCUCAUCCCGCAACAGAGGAUUGAGCAUCA
# B4: 25965924_25966044_3465_3pUTR_ENSG00000143970_ENST00000336112|human|control|control (ssRNA)
# RNA: GGGAGUUCUACAGUCCGACGAUCCCUGAGUGAGCGAAGUUGAACUGUGAGGGCGGCACAACUGAGAGAAGAUUCUGCCUCCGAACCCUCUGAAUGAGAGUCUGAAGGAUCUGAUCUUGGGUUGCUUUACUUAGUCCUUCGUGGCAACAGAGGAUUGAGCAUCA
# B5: chr9:36594116:36594117:-_ENSMUSG00000062762_ENSMUST00000115086|mus_hu|FALSE|FALSE (ssRNA)
# RNA: GGGAGUUCUACAGUCCGACGAUCUGGGUCACCGAUAAUUCGGGCUGUUACCGACUGAAGCACAGGAAUAAAUACUCGAUAAAACAAGAGGAGACUGAACCAGAACACUCCACCAUUCCAAGCACAACACUGGAAAAUUCUACUCAACAGAGGAUUGAGCAUCA
# B6: chr1:39494447:39494448:+_ENSG00000168653_ENST00000372967|hu_mus|hu_hu_hu_mus_False|28_28 (ssRNA)
# RNA: GGGAGUUCUACAGUCCGACGAUCGCACCGAGCGGCGUUCUUAUAGGGCUGUUCUGCGCUUAGGAACAUAAAGUGCCGGUCCAGGCUGAUGCCCAGCUUUUUCUGUAUGUCCAAGAAAGGCAUGGCUCUGCAGUGCCCUUGUCACAACAGAGGAUUGAGCAUCA
# B7: chr1:127303955:127303956:-_ENSMUSG00000026341_ENSMUST00000027579|perfect_dup|FALSE|FALSE (ssRNA)
# RNA: GGGAGUUCUACAGUCCGACGAUCUAUUACCGUACCGGUCAACGUCCGUUCUCCUACUUGUCUUGAGGUCCAAGAUGCAGCUAAGGCAAGAACAGCCUGCACAGCAAUGUACAAGCCUGGAACAUUGAAGGACUCAAACAUUAUCAACAGAGGAUUGAGCAUCA
# B8: chr16:38090358:38090359:+_ENSMUSG00000022812_ENSMUST00000023507|mus_mus|FALSE|FALSE (ssRNA)
# RNA: GGGAGUUCUACAGUCCGACGAUCUCUUCAAGACAGAUCGGUACGGAUAUUUAACACAUAGAUGAUUUAGAGCUGGGAGAAAAAUACAAUUCUUUCACCUCCCUUUCCUGGAAGAGGAGAAAAAGGGUGGAGUGGAAUCCUUAACAACAGAGGAUUGAGCAUCA
# B9: 111860438_111860558_452_CDS_ENSG00000148700_ENST00000277900|human|control|control (ssRNA)
# RNA: GGGAGUUCUACAGUCCGACGAUCGAAGUCUUGUCGUAGAUCAGGAGACAUGUUCCUCUCCCUAAUGUAUUCUGGGUCAUUUUCAUUGAUGCGGUCAAAAUAUCUCUCUUUGUGAGGCAUGCUGGGAGGAGGAGGAGUGGUAAUCAACAGAGGAUUGAGCAUCA
# B10: chr5:116376479:116376480:+_ENSMUSG00000029516_ENSMUST00000051704|mus_hu|motif|central (ssRNA)
# RNA: GGGAGUUCUACAGUCCGACGAUCCUGCUCCAGGAGGGAUCUCUGAGUCUCAGAGGCCUUCAGCUCCACCUCCUUCUGACGGAGCACAGCCUCCACCUCUGACACUCUCCGAUGUAACCGGGUCAUUUCCUGCUCCAUCUUGUGCAACAGAGGAUUGAGCAUCA
# B11: chr9:82769708:82769709:-_ENSMUSG00000032253_ENSMUST00000034787|mus_mus|FALSE|FALSE (ssRNA)
# RNA: GGGAGUUCUACAGUCCGACGAUCAAAAGCUUUUGUGGCUGAUGAUGUAGAGGGCUGCUCGGUGACAACUGGAUCUACAGCUACACGGUUGCUCCUAGUUCGAACCACAGAACUGGAUUCUGGUUUACCAUUCAUUUGCGCAGCCAACAGAGGAUUGAGCAUCA
# B12: chr11:70340070:70340071:+_ENSMUSG00000018286_ENSMUST00000018430|mus_hu|FALSE|FALSE (ssRNA)
# RNA: GGGAGUUCUACAGUCCGACGAUCCAGGUCUUCCCGGUAUCGGUAACACAUCUCCUUAAAGAGGCUGGCUGCUGUGUGGACCAGUGGAGGCUCAUUCAGUUCAAUGCUGUGGAAACCGAGCUGGUAGGUGACAGCAUCAGCUACCAACAGAGGAUUGAGCAUCA
# B13: chr3:149686237:149686238:-_ENSG00000070087_ENST00000452853|perfect_dup|motif|central (ssRNA)
# RNA: GGGAGUUCUACAGUCCGACGAUCCUCCCCACCUUGACUCUUUGUCCGGAUGUCCAUUGUGCAGUCACCAUCGACGUAUAGACGGUCUCUGAUCACUGAGCAUUUCUUCGCGCCAAGAGUCAAACCGUUGGUAAAGAAACCUUCCAACAGAGGAUUGAGCAUCA
# B14: chr8:22473583:22473584:+_ENSG00000158941_ENST00000389279|hu_hu|FALSE|FALSE (ssRNA)
# RNA: GGGAGUUCUACAGUCCGACGAUCAGGUUCAGGUGGGGACACGACCUUUUCAGGAAGGCUCAGUAGCAUCUUAUAAACUCUAUAGCCAAAAUCCCUCUGGAGCAUCUCCAGAAACAGCUCGGCCAGCACCAUCACCUCAAAAGACAACAGAGGAUUGAGCAUCA
# Molecular target: T1, UNK ZnF1-3
# Test: nsRBNS (natural sequence RNA bind-n-seq); RBNS binding buffer (assumed for nsRBNS): 25 mM Tris pH 7.5, 150 mM KCl, 3 mM MgCl2, 0.01% Triton X-100, 500 ug/ml BSA, 20 U/ml SUPERase-In, 4 C; UNK is unkempt and MSI1 is Musashi-1; names of the RNAs are library labels; protein concentration not given here; high values mean tight binding
row,Binder,binding signal [enrichment R]
1,B1,2.1
2,B2,0.435
3,B3,1.11
4,B4,1.15
5,B5,1.71
6,B6,0.838
7,B7,0.988
8,B8,1.18
9,B9,1.13
10,B10,0.463
11,B11,0.8
12,B12,0.855
13,B13,1.09
14,B14,0.725
